Data from PubChem BioAssay AID624170 (National Center for Advancing Translational Sciences (NCATS), 2012).
Where “and” joins values, the source holds several entries; their conditions need not be identical. Equal values may be shown once. In all, about 410,000 compounds went through this assay and about 850 (0.21%) were called active. Inconclusive results, whose numbers are uncertain, are shown with a selection of clear calls. Calls follow the shape of the dose curve; as a rule, active = well fitted inhibition curve with a large enough effect; inconclusive = small, poorly fitted or top-dose-only effect, or another doubt; inactive = no such curve, though single readings can be large or run the other way. Potencies beside an inconclusive call are fits to weak or partial responses and may not hold up.
% is scaled to controls: 0 for no effect and ±100 for the full control effect; potency is read from the fitted curve at half-maximal effect; tags tell the direction and shape of the fitted curve.

These compounds were tested against Glutaminase kidney isoform, mitochondrial (Homo sapiens) (UniProt O94925) (assay: qHTS for Inhibitors of Glutaminase (GLS)). Conditions: GLS enzymatic activity, qHTS titration; series mostly up to 45.5 µM; activity change, negative = inhibition: at the top concentration.
Chain of UniProt O94925 (O94925 whole entry, looked up, canonical isoform): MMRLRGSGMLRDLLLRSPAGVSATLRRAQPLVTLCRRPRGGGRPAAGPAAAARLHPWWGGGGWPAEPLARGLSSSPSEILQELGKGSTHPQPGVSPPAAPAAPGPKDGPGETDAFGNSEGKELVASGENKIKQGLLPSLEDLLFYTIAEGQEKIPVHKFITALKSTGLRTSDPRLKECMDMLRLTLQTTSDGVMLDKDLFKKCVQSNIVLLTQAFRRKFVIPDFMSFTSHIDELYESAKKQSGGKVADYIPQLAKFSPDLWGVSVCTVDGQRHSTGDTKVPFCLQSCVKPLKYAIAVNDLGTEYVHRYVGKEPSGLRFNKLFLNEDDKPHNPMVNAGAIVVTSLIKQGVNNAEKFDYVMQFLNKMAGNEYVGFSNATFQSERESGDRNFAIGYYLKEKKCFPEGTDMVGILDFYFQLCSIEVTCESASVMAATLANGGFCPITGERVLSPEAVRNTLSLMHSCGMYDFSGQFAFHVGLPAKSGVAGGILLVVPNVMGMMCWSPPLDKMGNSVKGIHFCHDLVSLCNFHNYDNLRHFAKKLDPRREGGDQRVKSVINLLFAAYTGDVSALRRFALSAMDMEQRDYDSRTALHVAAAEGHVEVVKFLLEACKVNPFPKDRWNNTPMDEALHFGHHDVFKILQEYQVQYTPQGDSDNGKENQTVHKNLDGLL
In short: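 Coupled fluorescence readout: glutamate oxidase/HRP/Amplex Red detect glutamate formed by hKGA from L-glutamine (1 mM solution added). Buffer 45 mM KH2PO4 pH 8.2, 0.02% Tween-20; reads at t0 and 30 min RT.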
With Cc1ccc2c(c1C)NC(C(=O)O)C1CC=CC21 (configuration not stated) the Potency was inconclusive: 3.16 µM [inhibitor, full curve, poor fit]. COc1ccc(S(=O)(=O)N2CCCC(C(=O)Nc3cccnc3)C2)cc1Cl (configuration not stated) was tested, and the Potency was inconclusive: 17.8 µM [inhibitor, partial curve, poor fit]. In the case of CCc1ccc(CN2CCC(n3nccc3NC(=O)c3ccccc3Cl)CC2)cc1, the “activity change, negative = inhibition” value is reported as inactive: -9.91%. With CC1CCN(CCCNC(=O)c2ccc3c(Cl)c4c(nc3c2)CCCC4)CC1 the “activity change, negative = inhibition” value was inactive: -3.11%. CCOc1ccccc1Nc1nc(-c2cccnc2)cs1 was tested, and the Potency was inconclusive: 10 µM [inhibitor, partial curve]. Cc1ccnc2nc(C(=O)OCC(=O)NC(=O)NCc3ccco3)nn12 was tested, and the Potency was inconclusive: 8.91 µM [inhibitor, partial curve]. COc1ccc(CC2C(=O)OC(C)(C)OC2=O)cc1 was tested, and the Potency was inconclusive: 35.5 µM [inhibitor, single point]. With CCN(CC)CCNC(=O)c1ccc2c(c1)NC(=O)C(CS(=O)(=O)Cc1ccc(F)cc1Cl)N2 (configuration not stated) the Potency was inconclusive: 15.8 µM [inhibitor, partial curve]. In the case of COCCn1c(C2CCCCC2)nc2sc3ccccc3c(=O)c2c1=O, the Potency is reported as inconclusive: 7.08 µM [inhibitor, partial curve, poor fit]. With O=C(CC(Nc1ccc(F)cc1)C(=O)O)c1ccccc1 (configuration not stated) the Potency was inconclusive: 12.6 µM [inhibitor, single point]. For CCC(=O)NCc1ccc2[nH]c(C)cc2c1, the “activity change, negative = inhibition” value was inactive: 14.1%. For CN1C(=O)/C(=C/c2ccc(C(=O)Nc3ccc(O)cc3C(=O)O)cc2)SC1=S, the Potency was inconclusive: 31.6 µM [inhibitor, single point]. With CC(=C\c1ccccc1)/C=C1/SC(=S)N(CCCC(=O)O)C1=O the Potency was inconclusive: 35.5 µM [inhibitor, single point]. In the case of O=C(CCC1CCCN(C(=O)CC2=CCCCC2)C1)N1CCN(c2ccccn2)CC1 (configuration not stated), the Potency is reported as inconclusive: 35.5 µM [inhibitor, single point]. CS/C(=N\S(=O)(=O)c1cccs1)NC(=O)CSc1nc2ccccc2s1 was tested, and the Potency was inconclusive: 35.5 µM [inhibitor, single point] and inconclusive: 20 µM [inhibitor, single point]. In the case of O=C(c1ccc(-c2ccc([N+](=O)[O-])cc2)o1)N1CCCCC1, the “activity change, negative = inhibition” value is reported as inactive: 6.04%. With Cn1c(SCC(=O)NC(=O)CN2CCCC2=O)nnc1-c1ccc(F)cc1 the “activity change, negative = inhibition” value was inactive: -10.1%. With Cc1noc(NS(=O)(=O)c2ccc(NC(=O)COc3ccc(Cl)cc3Cl)cc2)c1C the “activity change, negative = inhibition” value was inactive: -4.5%. With CCOc1cc2sc(N3CCC(C(=O)Nc4ccc(C(C)C)cc4)CC3)nc2cc1Br the Potency was inconclusive: 4.47 µM [inhibitor, full curve, poor fit]. For O=C(/C=C/c1ccc([N+](=O)[O-])cc1)Nc1cccc(C(=O)Nc2ccccc2C(=O)O)c1, the Potency was inconclusive: 35.5 µM [inhibitor, single point]. With CC(C)Cn1c(-c2csc3c2CCCC3)n[nH]c1=S the Potency was inconclusive: 14.1 µM [inhibitor, partial curve]. In the case of Cc1ccnc(NCc2cc(C)ccc2O)c1, the Potency is reported as inconclusive: 31.6 µM [inhibitor, single point]. CCOc1ccc2c(c1)[C@@H]1C=CC[C@@H]1[C@H](c1ccccc1Cl)N2 was tested, and the “activity change, negative = inhibition” value was inactive: -21.3%. CCOC(=O)C(Cc1ccnc2ccccc12)=NO was tested, and the “activity change, negative = inhibition” value was inactive: 10.9%. With CSc1nnc(Cc2cc(=O)[nH]c(=O)[nH]2)n1-c1cc(C)ccc1C the Potency was inconclusive: 35.5 µM [inhibitor, single point]. In the case of COc1cc(OC)c(Cl)cc1N, the Potency is reported as inconclusive: 17.8 µM [inhibitor, single point]. CC(C)(C)c1ccc(S(=O)(=O)CCc2ccccn2)cc1 was tested, and the “activity change, negative = inhibition” value was inactive: 1.46%. With CCc1[nH]nc2c1C(c1ccc(C)o1)C(C#N)=C(N)O2 (configuration not stated) the Potency was inconclusive: 22.4 µM [inhibitor, single point]. With C#CCNC(=O)C(C)c1ncc(C(F)(F)F)cc1Cl (configuration not stated) the Potency was inconclusive: 17.8 µM [inhibitor, single point]. COc1ccc(-c2nc3nc(C)cc(Nc4ccc(C(C)=O)cc4)n3n2)cc1 was tested, and the Potency was inconclusive: 10 µM [inhibitor, partial curve]. With O=C(CCn1c(=O)c2cccn2c2ccc(F)cc21)NCCc1ccccc1Cl the “activity change, negative = inhibition” value was inactive: -1.14%. In the case of Cc1cccc(N2CCN(C(=O)Cc3cn(C)c4ccccc34)CC2)c1C, the Potency is reported as inconclusive: 35.5 µM [inhibitor, single point]. In the case of CCn1nccc1C(=O)Nc1ccc(Cl)c(Cl)c1, the Potency is reported as inconclusive: 12.6 µM [inhibitor, single point]. For CCN(CC)c1ccc(NC(=O)Nc2cccc(C(C)=O)c2)cc1, the “activity change, negative = inhibition” value was inactive: 60.1%. For O=C(c1ccc(=O)oc1)N1CCCc2ccccc21, the Potency was active: 15.8 µM. O=C(O)c1ccc(/C=N\Nc2ccccn2)cc1 was tested, and the Potency was inconclusive: 10 µM [inhibitor, partial curve]. With COC1=C(Br)C(=O)c2ncccc2C1=O the Potency was inconclusive: 35.5 µM [inhibitor, single point]. For COc1cc(C(C[N+](=O)[O-])c2c(N)n(C)c(=O)n(C)c2=O)ccc1O (configuration not stated), the Potency was inconclusive: 5.62 µM [inhibitor, full curve]. In the case of Cn1c(CCC(=O)Nc2cc(S(C)(=O)=O)ccc2Cl)nc2cc(S(=O)(=O)N3CCOCC3)ccc21, the “activity change, negative = inhibition” value is reported as inactive: 0.305%. For CCc1ccc(NC(=O)Cn2ccn(-c3cccc(Cl)c3)c(=O)c2=O)cc1, the Potency was “inactive”. For O=[N+]([O-])c1ccc(N/N=C/c2c[nH]c3ccccc23)cc1, the Potency was inconclusive: 17.8 µM [inhibitor, partial curve, poor fit]. With S=c1[nH]nc(C2CCCCC2)n1/N=C/c1ccc(Br)s1 the Potency was inconclusive: 20 µM [inhibitor, single point]. In the case of COc1ccc(C(C#N)=C2C=CC(=NO)C=C2)cc1, the Potency is reported as inconclusive: 35.5 µM [inhibitor, single point]. With COc1cccc(NC=C2C(=O)OC(C)(C)OC2=O)c1 the “activity change, negative = inhibition” value was inactive: 0.577%. In the case of Cc1ccc(S(=O)c2ccc([N+](=O)[O-])c3nonc23)cc1 (configuration not stated), the Potency is reported as inconclusive: 5.01 µM [inhibitor, full curve]. In the case of O=c1c2ccccc2n(CC(O)CN2CCOCC2)c2ccccc12 (configuration not stated), the “activity change, negative = inhibition” value is reported as inactive: -3.08%. COc1ccc2c(c1)-c1nc(NC(=O)c3ccc(C)cc3)sc1CC2 was tested, and the “activity change, negative = inhibition” value was inactive: 2.96%. For COc1cccc(C(C[N+](=O)[O-])c2c(C)[nH]n(-c3ccccc3)c2=O)c1 (configuration not stated), the Potency was inconclusive: 17.8 µM [inhibitor, single point]. With CCOC(=O)/C(C#N)=C1/SC(CCO)C(=O)N1c1ccccc1 (configuration not stated) the Potency was inconclusive: 11.2 µM [inhibitor, single point]. With COc1ccc(-n2nc3cc(C)c(N)cc3n2)cc1Cl the “activity change, negative = inhibition” value was inactive: -9.06%. Oc1ccccc1N1CCN(c2ncnc3sc(-c4ccccc4)cc23)CC1 was tested, and the Potency was inconclusive: 22.4 µM [inhibitor, single point]. For COc1cccc(C(=O)N/N=C(\C)CC(=O)Nc2ccc(N(C)C)cc2)c1, the Potency was inconclusive: 14.1 µM [inhibitor, partial curve]. With O=C(NNc1ccnc2cc(Cl)ccc12)C1CCCCC1 the Potency was inconclusive: 14.1 µM [inhibitor, partial curve]. CCN(CC)c1nc(N2CCN(C)CC2)nc2ccccc12 was tested, and the “activity change, negative = inhibition” value was inactive: 6.1%. CN1CCC(N(C)C(=O)/C(C#N)=C/c2ccccc2)CC1 was tested, and the Potency was inconclusive: 35.5 µM [inhibitor, single point]. In the case of O=C(Nc1nnc(COc2ccc(Cl)cc2)s1)c1cccs1, the Potency is reported as inconclusive: 35.5 µM [inhibitor, single point]. With CCOC(=O)N1CCN(C(=O)c2ccc(S(=O)(=O)Nc3ccc(C)cc3)cc2)CC1 the “activity change, negative = inhibition” value was inactive: 11.3%. For CN(C)CCn1c2ccccc2c2nc3ccc([N+](=O)[O-])cc3cc21, the Potency was inconclusive: 3.98 µM [inhibitor, full curve, poor fit]. O=C(c1cc(-c2ccccc2)nc2ccccc12)N1CCOCC1 was tested, and the “activity change, negative = inhibition” value was inactive: -0.977%. Cc1nn(CC(=O)N2CCC(C)CC2)c(=O)c2cccn12 was tested, and the Potency was inconclusive: 6.31 µM [inhibitor, partial curve, poor fit]. CCN(C(=O)CSc1nc2ccccc2nc1Cc1cccc(OC)c1)c1cccc(C)c1 was tested, and the Potency was inconclusive: 0.0891 µM [inhibitor, full curve, poor fit]. With COc1ccc(NC(=S)N(CCCN2CCCCC2)Cc2cccs2)cc1 the Potency was inconclusive: 35.5 µM [inhibitor, partial curve, poor fit]. With Cc1ccc2oc(-c3cc(NC(=O)Cc4ccccc4)ccc3Cl)nc2c1 the “activity change, negative = inhibition” value was inactive: 3.54%. With NC(=NCCc1c[nH]c2ccccc12)NC(=O)c1ccc(F)cc1 the “activity change, negative = inhibition” value was inactive: 7.08%. For Cc1c(Cl)cccc1N1CC(C)(C)C1=O, the “activity change, negative = inhibition” value was inactive: 0%. For CN1/C(=C/C(=S)NC(=O)C2CCC2)C(C)(C)c2ccccc21, the Potency was inconclusive: 10 µM [inhibitor, partial curve]. With N#Cc1nc(-c2ccccc2)oc1N1CCCCC1 the “activity change, negative = inhibition” value was inactive: 6.81%. In the case of C[C@H](CO)N1C[C@H](C)[C@@H](CN(C)Cc2ccc(Cl)c(Cl)c2)OCCCC[C@H](C)Oc2ccc(NC(=O)CCC(F)(F)F)cc2C1=O, the “activity change, negative = inhibition” value is reported as inactive: -7.92%. In the case of CCN1CC2=C(OC(N)=C(C#N)C2c2cccs2)/C(=C/c2cccs2)C1 (configuration not stated), the “activity change, negative = inhibition” value is reported as inactive: 5.74%. For CC(=O)CCc1oc2c([N+](=O)[O-])cccc2c1-c1ccc(C)o1, the “activity change, negative = inhibition” value was inactive: 2.44%. For COc1ccc(OC)c(Cc2nnc(CCC(=O)NC3CCCCCCC3)o2)c1, the Potency was inconclusive: 35.5 µM [inhibitor, single point]. In the case of Cc1cc2c(s1)c1cnn(Cc3ccccc3F)c(=O)c1n2C, the Potency is reported as inconclusive: 7.08 µM [inhibitor, partial curve].
